# Measurements as given in the supplement of paper PMC8728848.
# Some of the results follow.
# How the values were obtained:
# Assay in all cases: glycan array binding signal (z-score within array); higher = stronger binding
# Conditions in all cases: glycan notation: IUPAC condensed, linker removed
# [1] = target: Glc(b1-2)Glc(b1-2)Glc(b1-2)Glc(b1-2)Glc(b1-2)Glc(b1-2)Glc(b1-2)Glc(b1-2)Glc(b1-2)Glc(b1-2)Glc(b1-2)Glc
# Method in brief: (§1)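 The binding signal is a Z-score computed within each array. Data were drawn from 3228 arrays in the Consortium for Functional Glycomics database, restricted to those with a known protein sequence. Scores were averaged over arrays of the same protein sequence at different concentrations or buffers, and over linkers, and negative values can be taken as non-binding.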
# [2] = target: Glc(b1-2)Glc(b1-2)Glc(b1-2)Glc(b1-2)Glc(b1-2)Glc(b1-2)Glc(b1-2)Glc(b1-2)Glc(b1-2)Glc(b1-2)Glc(b1-2)Glc(b1-2)Glc
# Method in brief: as §1
# Glc(b1-3)Glc = target: Glc(b1-3)Glc
# Method in brief: as §1
# Glc(b1-3)Glc(b1-3)Glc = target: Glc(b1-3)Glc(b1-3)Glc
# Method in brief: as §1
# [3] = target: Glc(b1-3)Glc(b1-3)Glc(b1-3)Glc
# Method in brief: as §1
# [4] = target: Glc(b1-3)Glc(b1-3)Glc(b1-3)Glc(b1-3)Glc
# Method in brief: as §1
# [5] = target: Glc(b1-3)Glc(b1-3)Glc(b1-3)Glc(b1-3)Glc(b1-3)Glc
# Method in brief: as §1
# [6] = target: Glc(b1-3)Glc(b1-3)Glc(b1-3)Glc(b1-3)Glc(b1-3)Glc(b1-3)Glc
# Method in brief: as §1
# [7] = target: Glc(b1-3)Glc(b1-3)Glc(b1-3)Glc(b1-3)Glc(b1-3)Glc(b1-3)Glc(b1-3)Glc
# Method in brief: as §1
# [8] = target: Glc(b1-3)Glc(b1-3)Glc(b1-3)Glc(b1-3)Glc(b1-3)Glc(b1-3)Glc(b1-3)Glc(b1-3)Glc
# Method in brief: as §1
# [9] = target: Glc(b1-3)Glc(b1-3)Glc(b1-3)Glc(b1-3)Glc(b1-3)Glc(b1-3)Glc(b1-3)Glc(b1-3)Glc(b1-3)Glc
# Method in brief: as §1
# [10] = target: Glc(b1-3)Glc(b1-3)Glc(b1-3)Glc(b1-3)Glc(b1-3)Glc(b1-3)Glc(b1-3)Glc(b1-3)Glc(b1-3)Glc(b1-3)Glc
# Method in brief: as §1
# [11] = target: Glc(b1-3)Glc(b1-3)Glc(b1-3)Glc(b1-3)Glc(b1-3)Glc(b1-3)Glc(b1-3)Glc(b1-3)Glc(b1-3)Glc(b1-3)Glc(b1-3)Glc
# Method in brief: as §1
# [12] = target: Glc(b1-3)Glc(b1-3)Glc(b1-3)Glc(b1-3)Glc(b1-3)Glc(b1-3)Glc(b1-3)Glc(b1-3)Glc(b1-3)Glc(b1-3)Glc(b1-3)Glc(b1-3)Glc
# Method in brief: as §1
# [13] = target: Glc(b1-3)Glc(b1-3)Glc(b1-3)Glc(b1-3)Glc(b1-3)Glc(b1-3)Glc(b1-3)[Glc(b1-6)]Glc(b1-3)Glc
# Method in brief: as §1
# [14] = target: Glc(b1-3)Glc(b1-3)Glc(b1-3)Glc(b1-3)Glc(b1-3)Glc(b1-3)[Glc(b1-6)]Glc(b1-3)Glc(b1-3)Glc
# Method in brief: as §1
# [15] = target: Glc(b1-3)Glc(b1-3)Glc(b1-3)Glc(b1-3)[Glc(b1-6)]Glc(b1-3)Glc(b1-3)Glc(b1-3)Glc(b1-3)Glc
# Method in brief: as §1
# [16] = target: Glc(b1-3)Glc(b1-3)Glc(b1-3)[Glc(b1-6)]Glc(b1-3)Glc(b1-3)Glc(b1-3)Glc(b1-3)[Glc(b1-6)]Glc(b1-3)Glc
# Method in brief: as §1
# [17] = target: Glc(b1-3)Glc(b1-3)[Glc(b1-6)]Glc(b1-3)Glc(b1-3)Glc(b1-3)Glc(b1-3)Glc(b1-3)Glc(b1-3)Glc
# Method in brief: as §1
# Glc(b1-3)Glc(b1-4)Glc = target: Glc(b1-3)Glc(b1-4)Glc
# Method in brief: as §1
# [18] = target: Glc(b1-3)Glc(b1-4)Glc(b1-4)Glc
# Method in brief: as §1
# [19] = target: Glc(b1-3)Glc(b1-4)Glc(b1-6)Glc(b1-4)Glc
# Method in brief: as §1
# [20] = target: Glc(b1-3)[Glc(b1-6)]Glc(a1-3)Glc(b1-3)[Glc(b1-6)]Glc
# Method in brief: as §1
# [21] = target: Glc(b1-3)[Glc(b1-6)]Glc(b1-3)Glc(b1-3)Glc(b1-3)Glc(b1-3)Glc(b1-3)Glc(b1-3)Glc
# Method in brief: as §1
# Glc(b1-4)Glc = target: Glc(b1-4)Glc
# Method in brief: as §1
# Glc(b1-4)Glc(b1-3)Glc = target: Glc(b1-4)Glc(b1-3)Glc
# Method in brief: as §1
# [22] = target: Glc(b1-4)Glc(b1-3)Glc(b1-4)Glc
# Method in brief: as §1
# Glc(b1-4)Glc(b1-4)Glc = target: Glc(b1-4)Glc(b1-4)Glc
# Method in brief: as §1
# [23] = target: Glc(b1-4)Glc(b1-4)Glc(b1-3)Glc
# Method in brief: as §1
# [24] = target: Glc(b1-4)Glc(b1-4)Glc(b1-3)Glc(b1-4)Glc(b1-4)Glc(b1-3)Glc
# Method in brief: as §1
# [25] = target: Glc(b1-4)Glc(b1-4)Glc(b1-4)Glc
# Method in brief: as §1
# [26] = target: Glc(b1-4)Glc(b1-4)Glc(b1-4)Glc(b1-3)Glc
# Method in brief: as §1
# [27] = target: Glc(b1-4)Glc(b1-4)Glc(b1-4)Glc(b1-4)Glc
# Method in brief: as §1
# [28] = target: Glc(b1-4)Glc(b1-4)Glc(b1-4)Glc(b1-4)Glc(b1-4)Glc
# Method in brief: as §1
# [29] = target: Glc(b1-4)Glc(b1-4)Glc(b1-4)Glc(b1-4)Glc(b1-4)Glc(b1-4)Glc
# Method in brief: as §1
# [30] = target: Glc(b1-4)Glc(b1-4)Glc(b1-4)Glc(b1-4)Glc(b1-4)Glc(b1-4)Glc(b1-4)Glc
# Method in brief: as §1
# [31] = target: Glc(b1-4)Glc(b1-4)Glc(b1-4)Glc(b1-4)Glc(b1-4)Glc(b1-4)Glc(b1-4)Glc(b1-4)Glc
# Method in brief: as §1
# [32] = target: Glc(b1-4)Glc(b1-4)Glc(b1-4)Glc(b1-4)Glc(b1-4)Glc(b1-4)Glc(b1-4)Glc(b1-4)Glc(b1-4)Glc
# Method in brief: as §1
# [33] = target: Glc(b1-4)Glc(b1-4)Glc(b1-4)Glc(b1-4)Glc(b1-4)Glc(b1-4)Glc(b1-4)Glc(b1-4)Glc(b1-4)Glc(b1-4)Glc
# Method in brief: as §1
# [34] = target: Glc(b1-4)Glc(b1-4)Glc(b1-4)Glc(b1-4)Glc(b1-4)Glc(b1-4)Glc(b1-4)Glc(b1-4)Glc(b1-4)Glc(b1-4)Glc(b1-4)Glc
# Method in brief: as §1
# [35] = target: Glc(b1-4)Glc(b1-4)Glc(b1-4)Glc(b1-4)Glc(b1-4)Glc(b1-4)Glc(b1-4)Glc(b1-4)Glc(b1-4)Glc(b1-4)Glc(b1-4)Glc(b1-4)Glc
# Method in brief: as §1
# Glc(b1-6)Glc = target: Glc(b1-6)Glc
# Method in brief: as §1
# Glc(b1-6)Glc(b1-6)Glc = target: Glc(b1-6)Glc(b1-6)Glc
# Method in brief: as §1
# [36] = target: Glc(b1-6)Glc(b1-6)Glc(b1-6)Glc
# Method in brief: as §1
# [37] = target: Glc(b1-6)Glc(b1-6)Glc(b1-6)Glc(b1-6)Glc
# Method in brief: as §1
# [38] = target: Glc(b1-6)Glc(b1-6)Glc(b1-6)Glc(b1-6)Glc(b1-6)Glc
# Method in brief: as §1
# [39] = target: Glc(b1-6)Glc(b1-6)Glc(b1-6)Glc(b1-6)Glc(b1-6)Glc(b1-6)Glc
# Method in brief: as §1
# [40] = target: Glc(b1-6)Glc(b1-6)Glc(b1-6)Glc(b1-6)Glc(b1-6)Glc(b1-6)Glc(b1-6)Glc
# Method in brief: as §1
# [41] = target: Glc(b1-6)Glc(b1-6)Glc(b1-6)Glc(b1-6)Glc(b1-6)Glc(b1-6)Glc(b1-6)Glc(b1-6)Glc
# Method in brief: as §1
# [42] = target: Glc(b1-6)Glc(b1-6)Glc(b1-6)Glc(b1-6)Glc(b1-6)Glc(b1-6)Glc(b1-6)Glc(b1-6)Glc(b1-6)Glc
# Method in brief: as §1
# [43] = target: Glc(b1-6)Glc(b1-6)Glc(b1-6)Glc(b1-6)Glc(b1-6)Glc(b1-6)Glc(b1-6)Glc(b1-6)Glc(b1-6)Glc(b1-6)Glc
# Method in brief: as §1
# [44] = target: Glc(b1-6)Glc(b1-6)Glc(b1-6)Glc(b1-6)Glc(b1-6)Glc(b1-6)Glc(b1-6)Glc(b1-6)Glc(b1-6)Glc(b1-6)Glc(b1-6)Glc
# Method in brief: as §1
# [45] = target: Glc(b1-6)Glc(b1-6)Glc(b1-6)Glc(b1-6)Glc(b1-6)Glc(b1-6)Glc(b1-6)Glc(b1-6)Glc(b1-6)Glc(b1-6)Glc(b1-6)Glc(b1-6)Glc
# Method in brief: as §1
# [46] = target: Man(b1-4)Man(b1-4)Man(b1-4)Man
# Method in brief: as §1
# [47] = target: Man(b1-4)Man(b1-4)Man(b1-4)Man(b1-4)Man
# Method in brief: as §1
# [48] = target: Man(b1-4)Man(b1-4)Man(b1-4)Man(b1-4)Man(b1-4)Man
# Method in brief: as §1
# [49] = target: Xyl(b1-4)Xyl(b1-4)Xyl(b1-4)Xyl(b1-4)Xyl
# Method in brief: as §1
# [50] = target: Xyl(b1-4)Xyl(b1-4)Xyl(b1-4)Xyl(b1-4)Xyl(b1-4)Xyl
# Method in brief: as §1
binder,measurement,setting,value
"Dectin-1 (Mus musculus), Q6QLQ4 (protein) EYGHNSGRNPEEKDNFLSRNKENHKPTESSLDEKVAPSKASQTTGGFSQPCLPNWIMHGKSCYLFSFSGNSWYGSKRHCSQLGAHLLKIDNSKEFEFIESQTSSHRINAFWIGLSRNQSEGPWFWEDGSAFFPNSFQVRNTAPQESLLHNCVWIHGSEVYNQICNTSSYSICEKEL",glycan array binding signal (z-score),[1],-0.166
same,glycan array binding signal (z-score),[2],-0.182
same,glycan array binding signal (z-score),Glc(b1-3)Glc,-0.156
same,glycan array binding signal (z-score),Glc(b1-3)Glc(b1-3)Glc,-0.162
same,glycan array binding signal (z-score),[3],-0.133
same,glycan array binding signal (z-score),[4],-0.164
same,glycan array binding signal (z-score),[5],-0.18
same,glycan array binding signal (z-score),[6],-0.174
same,glycan array binding signal (z-score),[7],-0.168
same,glycan array binding signal (z-score),[8],-0.178
same,glycan array binding signal (z-score),[9],-0.177
same,glycan array binding signal (z-score),[10],0.83
same,glycan array binding signal (z-score),[11],5.77
same,glycan array binding signal (z-score),[12],6.71
same,glycan array binding signal (z-score),[13],-0.182
same,glycan array binding signal (z-score),[14],-0.182
same,glycan array binding signal (z-score),[15],-0.182
same,glycan array binding signal (z-score),[16],-0.182
same,glycan array binding signal (z-score),[17],-0.182
same,glycan array binding signal (z-score),Glc(b1-3)Glc(b1-4)Glc,-0.182
same,glycan array binding signal (z-score),[18],-0.182
same,glycan array binding signal (z-score),[19],-0.182
same,glycan array binding signal (z-score),[20],-0.182
same,glycan array binding signal (z-score),[21],-0.182
same,glycan array binding signal (z-score),Glc(b1-4)Glc,-0.167
same,glycan array binding signal (z-score),Glc(b1-4)Glc(b1-3)Glc,-0.068
same,glycan array binding signal (z-score),[22],-0.182
same,glycan array binding signal (z-score),Glc(b1-4)Glc(b1-4)Glc,-0.157
same,glycan array binding signal (z-score),[23],-0.116
same,glycan array binding signal (z-score),[24],-0.124
same,glycan array binding signal (z-score),[25],-0.135
same,glycan array binding signal (z-score),[26],-0.001
same,glycan array binding signal (z-score),[27],-0.138
same,glycan array binding signal (z-score),[28],-0.148
same,glycan array binding signal (z-score),[29],-0.159
same,glycan array binding signal (z-score),[30],-0.125
same,glycan array binding signal (z-score),[31],-0.151
same,glycan array binding signal (z-score),[32],-0.178
same,glycan array binding signal (z-score),[33],-0.169
same,glycan array binding signal (z-score),[34],-0.149
same,glycan array binding signal (z-score),[35],-0.156
same,glycan array binding signal (z-score),Glc(b1-6)Glc,-0.167
same,glycan array binding signal (z-score),Glc(b1-6)Glc(b1-6)Glc,-0.141
same,glycan array binding signal (z-score),[36],-0.125
same,glycan array binding signal (z-score),[37],-0.14
same,glycan array binding signal (z-score),[38],-0.178
same,glycan array binding signal (z-score),[39],-0.149
same,glycan array binding signal (z-score),[40],-0.13
same,glycan array binding signal (z-score),[41],-0.149
same,glycan array binding signal (z-score),[42],-0.165
same,glycan array binding signal (z-score),[43],-0.13
same,glycan array binding signal (z-score),[44],-0.141
same,glycan array binding signal (z-score),[45],-0.156
same,glycan array binding signal (z-score),[46],-0.038
same,glycan array binding signal (z-score),[47],-0.172
same,glycan array binding signal (z-score),[48],-0.154
same,glycan array binding signal (z-score),[49],-0.143
same,glycan array binding signal (z-score),[50],-0.14
